Measured values taken from the supplement of paper PMC4967469.

compound: NC(=O)[C@@H](CCC(F)(F)F)N(Cc1ccc(-c2ncon2)cc1F)S(=O)(=O)c1ccc(Cl)cc1 [BMS-708163]; experiment: Viability of human cancer cell lines after 72 h of drug (GDSC screen); conditions: screen: GDSC drug entry 205; top dose inferred
Method: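 Human cancer cell lines in 384-well plates, medium with 10% serum, drug for 72 h over a 256-fold dose range (nine 2-fold or five 4-fold steps up to the top dose). Adherent lines were fixed and stained with the nucleic acid dye Syto60, suspension lines read with resazurin; signal relative to control wells, capped at 0 and 100%. One two-parameter sigmoid per drug and line, fitted in a mixed model over all curves with the slope shared within a line.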

Cell Line | AUC | IC50
HeLa (cervix, adherent, top dose 10.24 µM) | 0.986 | > 10.2 µM
23132-87 (stomach, adherent, top dose 10.24 µM) | 0.986 | > 10.2 µM
NCI-H1836 (small cell lung carcinoma, suspension, top dose 10.24 µM) | 0.988 | > 10.2 µM
COLO-800 (melanoma, adherent, top dose 10.24 µM) | 0.988 | > 10.2 µM
RCM-1 (large intestine, adherent, top dose 10.24 µM) | 0.984 | > 10.2 µM
HPAC (pancreas, adherent, top dose 10.24 µM) | 0.907 | > 10.2 µM
PC-14 (lung adenocarcinoma, adherent, top dose 10.24 µM) | 0.987 | > 10.2 µM
JHH-1 (liver, adherent, top dose 10.24 µM) | 0.973 | > 10.2 µM
SJRH30 (rhabdomyosarcoma, adherent, top dose 10.24 µM) | 0.986 | > 10.2 µM
H3255 (lung adenocarcinoma, adherent, top dose 10.24 µM) | 0.983 | > 10.2 µM
H2803 (mesothelioma, adherent, top dose 10.24 µM) | 0.98 | > 10.2 µM
CAKI-1 (kidney, adherent, top dose 10.24 µM) | 0.966 | > 10.2 µM
EFM-19 (breast, adherent, top dose 10.24 µM) | 0.977 | > 10.2 µM
NCI-H1563 (lung adenocarcinoma, adherent, top dose 10.24 µM) | 0.982 | > 10.2 µM
TK (B-cell lymphoma, suspension, top dose 10.24 µM) | 0.982 | > 10.2 µM
Saos-2 (osteosarcoma, adherent, top dose 10.24 µM) | 0.981 | > 10.2 µM
PL4 (pancreas, adherent, top dose 10.24 µM) | 0.986 | > 10.2 µM
HOP-92 (large cell lung carcinoma, adherent, top dose 10.24 µM) | 0.98 | > 10.2 µM
CMK (acute myeloid leukaemia, suspension, top dose 10.24 µM) | 0.913 | > 10.2 µM
U-698-M (B-cell leukaemia, suspension, top dose 10.24 µM) | 0.987 | > 10.2 µM
OVCA433 (ovary, adherent, top dose 10.24 µM) | 0.984 | > 10.2 µM
Caov-3 (ovary, adherent, top dose 10.24 µM) | 0.987 | > 10.2 µM
NB69 (neuroblastoma, adherent, top dose 10.24 µM) | 0.973 | > 10.2 µM
ES3 (Ewing sarcoma, adherent, top dose 10.24 µM) | 0.981 | > 10.2 µM

Cell Line | AUC | IC50
HCC-56 (large intestine, adherent, top dose 10.24 µM) | 0.985 | > 10.2 µM
AU565 (breast, adherent, top dose 10.24 µM) | 0.984 | > 10.2 µM
BB30-HNC (head and neck, adherent, top dose 10.24 µM) | 0.979 | > 10.2 µM
huH-1 (liver, adherent, top dose 10.24 µM) | 0.978 | > 10.2 µM
PCI-6A (head and neck, adherent, top dose 10.24 µM) | 0.988 | > 10.2 µM
C32 (melanoma, adherent, top dose 10.24 µM) | 0.987 | > 10.2 µM
CAS-1 (glioma, adherent, top dose 10.24 µM) | 0.956 | > 10.2 µM
SJSA-1 (bone, adherent, top dose 10.24 µM) | 0.984 | > 10.2 µM
NKM-1 (acute myeloid leukaemia, suspension, top dose 10.24 µM) | 0.984 | > 10.2 µM
NCI-H630 (large intestine, adherent, top dose 2.56 µM) | 0.981 | > 2.56 µM
SW837 (large intestine, adherent, top dose 10.24 µM) | 0.981 | > 10.2 µM
NB1 (neuroblastoma, semi-adherent, top dose 10.24 µM) | 0.974 | > 10.2 µM
PF-382 (T-cell lymphoblastic leukaemia, suspension, top dose 2.56 µM) | 0.985 | > 2.56 µM
SW962 (urogenital system, adherent, top dose 10.24 µM) | 0.981 | > 10.2 µM
K2 (melanoma, adherent, top dose 10.24 µM) | 0.982 | > 10.2 µM
BICR31 (head and neck, adherent, top dose 10.24 µM) | 0.988 | > 10.2 µM
LB1047-RCC (kidney, adherent, top dose 10.24 µM) | 0.983 | > 10.2 µM
TGBC24TKB (biliary tract, adherent, top dose 10.24 µM) | 0.989 | > 10.2 µM
LAN-6 (neuroblastoma, adherent, top dose 10.24 µM) | 0.982 | > 10.2 µM
JVM-3 (lymphoid neoplasm, suspension, top dose 10.24 µM) | 0.987 | > 10.2 µM
SK-LU-1 (lung adenocarcinoma, adherent, top dose 10.24 µM) | 0.981 | > 10.2 µM
EB-3 (Burkitt lymphoma, suspension, top dose 10.24 µM) | 0.978 | > 10.2 µM
DMS-53 (small cell lung carcinoma, adherent, top dose 10.24 µM) | 0.985 | > 10.2 µM
MKN45 (stomach, adherent, top dose 10.24 µM) | 0.982 | > 10.2 µM

Cell Line | AUC | IC50
KARPAS-231 (B-cell leukaemia, suspension, top dose 10.24 µM) | 0.994 | > 10.2 µM
HCE-4 (oesophagus, adherent, top dose 10.24 µM) | 0.992 | > 10.2 µM
HCC1500 (breast, adherent, top dose 10.24 µM) | 0.987 | > 10.2 µM
Ramos-2G6-4C10 (Burkitt lymphoma, suspension, top dose 10.24 µM) | 0.988 | > 10.2 µM
LCLC-97TM1 (large cell lung carcinoma, adherent, top dose 10.24 µM) | 0.908 | > 10.2 µM
JEG-3 (urogenital system, adherent, top dose 10.24 µM) | 0.989 | > 10.2 µM
WM35 (melanoma, adherent, top dose 10.24 µM) | 0.973 | > 10.2 µM
D-423MG (glioma, adherent, top dose 10.24 µM) | 0.968 | > 10.2 µM
D-247MG (glioma, adherent, top dose 10.24 µM) | 0.946 | > 10.2 µM
CTV-1 (acute myeloid leukaemia, suspension, top dose 2.56 µM) | 0.99 | > 2.56 µM
5637 (bladder, adherent, top dose 10.24 µM) | 0.989 | > 10.2 µM
HT-1376 (bladder, adherent, top dose 10.24 µM) | 0.972 | > 10.2 µM
A375 (melanoma, adherent, top dose 10.24 µM) | 0.988 | > 10.2 µM
SW954 (urogenital system, adherent, top dose 10.24 µM) | 0.963 | > 10.2 µM
NCI-H1648 (lung adenocarcinoma, adherent, top dose 2.56 µM) | 0.967 | > 2.56 µM
LXF-289 (lung adenocarcinoma, adherent, top dose 10.24 µM) | 0.987 | > 10.2 µM
COLO-824 (breast, adherent, top dose 10.24 µM) | 0.968 | > 10.2 µM
KARPAS-422 (B-cell lymphoma, suspension, top dose 10.24 µM) | 0.988 | > 10.2 µM
COLO-320-HSR (large intestine, suspension, top dose 10.24 µM) | 0.989 | > 10.2 µM
LC-2-ad (lung adenocarcinoma, adherent, top dose 10.24 µM) | 0.985 | > 10.2 µM
TC-71 (Ewing sarcoma, adherent, top dose 10.24 µM) | 0.992 | > 10.2 µM
T-24 (bladder, adherent, top dose 10.24 µM) | 0.988 | > 10.2 µM
NCI-H1666 (lung adenocarcinoma, semi-adherent, top dose 2.56 µM) | 0.987 | > 2.56 µM
NCI-H1792 (lung adenocarcinoma, adherent, top dose 10.24 µM) | 0.99 | > 10.2 µM

same assay, conditions: top dose 5 µM; screen: GDSC drug entry 1072; top dose inferred

Cell Line | AUC | IC50
VMRC-LCD (lung adenocarcinoma, adherent) | 0.987 | > 5 µM
JHOS-2 (ovary, adherent) | 0.973 | > 5 µM
Jurkat (T-cell leukaemia, suspension) | 0.99 | > 5 µM
NCI-H835 (lung carcinoid, suspension) | 0.985 | > 5 µM
DIFI (large intestine, adherent) | 0.986 | > 5 µM
SNU-81 (large intestine, adherent) | 0.973 | > 5 µM
D-423MG (glioma, adherent) | 0.934 | > 5 µM

By IC50 is meant the dose at which the fit gives 50% viability; a limit (>, <) means that the fit lies beyond the doses tested. AUC sums up the same curve from the lowest dose to the 256-fold higher top dose; it is 1 without any effect and falls as sensitivity rises. Where the top dose is marked as inferred, it is not printed in the source and was worked back from the curve model. An entry number marks a drug with two screens in the source, which often give different values.
